The source of these data is paper PMC3029384, “Dimeric SecA Couples the Preprotein Translocation in an Asymmetric Manner” (PLoS ONE, 2011).

Data set [1] concerns the molecule itself. Briefly: negative-stain electron microscopy, single-particle 3D reconstruction; SecA/proOmpA/SecB complex, 1% uranyl acetate; 24 Å reconstruction from 2,704 particles after multi-model refinement, no symmetry; crystal structures docked into the map.
The target of another data set is T1, His6-tagged SecB (Escherichia coli, UniProt P0AG86 1-153).
T1 construct: SecB chaperone, Escherichia coli; The tag is named explicitly only in Materials and for the SecB/proOmpA assembly; also called SecB tetramer; tetrameric SecB
T1 sequence: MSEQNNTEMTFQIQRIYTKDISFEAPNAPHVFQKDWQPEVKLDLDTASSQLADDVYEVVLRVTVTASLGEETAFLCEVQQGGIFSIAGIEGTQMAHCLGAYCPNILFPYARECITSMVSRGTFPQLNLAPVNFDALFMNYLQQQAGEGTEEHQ
Briefly: negative-stain electron microscopy, single-particle 3D reconstruction; SecA/SecB complex fractions from SEC, 1% uranyl acetate; 18 Å reconstruction, C2 symmetry imposed; crystal structures docked into the map. To be noted: both partners purified.

B1: SecA (enzyme)
chain: not shown
notes: SecA, the ATPase of the Sec translocase, Escherichia coli; It is described as a homodimer in the complexes; also called E. coli SecA; ecSecA
What is called stoichiometry N is a count of units in the complex or per binding partner. For B1, the figures for the “stoichiometry N” value (in data set [1]; in the data set with His6-tagged SecB) were 2 and 1 SecA dimer per SecB tetramer, respectively.
